# Test results: US8507464B2, “Phosphoramidate alkylator prodrugs” (Threshold Pharmaceuticals, Inc., priority 2005, dated 2013)
# Test system: HT29 xenograft
# Test: HT-29 human colon carcinoma xenograft mouse model (Example 50)
# Assay type: in vivo
# Settings: day 25, vs vehicle
# Description: Female CB17/SCID mice (purchased from Charles River, Cambridge, Mass.), 7-8 weeks of age, were allowed to acclimatize for at least three days, and handled under pathogen-free conditions. Human colon carcinoma cell line HT29 was obtained from the American Type Culture Collection. The cell lines were cultured and harvested as described in Example 47 above, and inoculated at 3×10^6 cells/animal in the peritoneal subcutaneous space. […]; in saline) on the days the combination therapy was scheduled; 5FU alone (in saline), or CDDP alone.
# In control groups, tumors were implanted in two locations as part of a separate study of effect of location on control group tumor growth. […] The body weight and tumor volume were measured as described in Example 47. Tumor growth inhibition measured on day 25 when vehicle tumors had reached the maximal size and animals in that group were sacrificed is tabulated below.
SMILES,% Inhibition vs Group 4 (Group 6: CDDP 5 mg/kg iv once),% Inhibition vs Group 4 (Group 7: Compound 24 3 mg/kg ip (q1d × 5)/week × 3 week),% Inhibition vs Group 4 (Group 8: Compound 24 6 mg/kg ip (q1d × 5)/week × 3 week)
"N.N.[Cl][Pt][Cl] [Cisplatin, cis-Diaminedichloroplatinum (II), reference compound]",37.4%,,
O=[N+]([O-])c1ccc(COP(=O)(NCCBr)NCCBr)o1 [Compound 24],,44.1%,42.1%
